Test results: the RNAGym collection of RNA variant scans (doi:10.7554/elife.90254)
Read counts are not given, so values of variants with three or more changes are uncertain.

B1: LINE1-mini (parent)
chain: GGCAGAGCUCAACACAGCGUGGCAAAGUGGCUGUGGCUAGACUGCC

Variants of: B1
Experiment: self-cleavage, relative activity (ratio to wild type); higher = more cleavage; in vitro, sequencing; the parent is a self-cleaving ribozyme

Variant	self-cleavage
GGCAGAGCUCAACCCAGACUGGCAAAGUGGCUGUGGCUAGACUGCC	0.19
GGCAGAGCUCAAUACAGCGUGGCAAAGUGGCUGUGGCUAUAUUGCC	0.23
GGCAGAGCUCAACCCAGCGUGGCAACAUGGCUGUGGCUACACUGCC	0.05
GGCAGAGCUCAAUACAGCGUGGCAAAGUGGCUGCGGCUAGACUGUC	0.04
GGCAGAGCUCAACCCAGCGUGGCCAAGUGGCUGUGGCCAGACUGCC	0.06
GGCAGAGCUCAACCCAACGUGGCAAAGUGGCUGUGGCUAGACUGUC	0
GGCAGAGCUCAAUACAGCGUGUCAAAGUGUCUGUGGCUAGACUGCC	0.72
GGCAGAGCUCAAUACAGCGUGGCAAAGUGGCUGUGGCUAUACUGGA	0.02
GGCAGAGCUCAACCAAGCGUGGCAAAGUGGCUGUGGGUAGACUGCC	0.02
GGCAGAGCUCAACCUAGCGAGGCAAAGUGGCUGUGGCUAGACUGCC	0.07
GGCAGAGCUCAAUACAGCGUGGCAAAGUGGCUUUGGCUAGACUGCG	0.05
GGCAGAGCUCAAUACAGCGUGGCAAAGUGGCUUUGGCUAGACUGCU	0.03
GGCAGAGCUCAAUACAGCGUUGCAAAGUGGCUGUGGCUAGACCGCC	0.11
GGCAGAGCUCAACCCAGCGUGUCUACGUGGCUGUGGCUAGAAUGCC	0.03
GGCAGAGCUCAACCCAGCGUGGCAAAGUGGAAGUGGCUAGACUGCC	0.02
GGCAGAGCUCAAUACAGCGUGGCAAAGUGGCUGGGGCUAGACUGGC	0.03
GGCAGAGCUCAAUACAGCGUGGCAAAGUGGCUGGGGCUAGAGUGCC	0.02
GGCAGAGCUCAAUACAGCGAGGCAAAGUGGCUAUGGCUAAACUGCC	0.02
GGCAGAGCUCAAUACAGCGUGGCAAAGUGGCUGCCGCUCGCCUGCC	0.03
GGCAGAGCUCAACCCAGCGUCGGAAAUUGGCUGUGGCUAGUCUGCC	0.02
GGCAGAGCUCAACCCAGCGUGGCUUUGUGGCUGUUGCUAGACUGCC	0.05
GGCAGAGCUCAACCCAGCGUCGCACAGUGGCUGUGUCUAGACUGCC	0.07
GGCAGAGCUCAAUACAGCGUGGCAAAUUGGUUGUGGCUAGACUGCU	0.05

Variant	self-cleavage
GGCAGAGCUCAACCCGGCGUGGCAAAGUGGCUGUGGCUAUACUGCC	0.03
GGCAGAGCUCAAUACAGCGGGGCAAAGUGGCUUUGGCUAGACAGCC	0
GGCAGAGCUCAACCCAGCGUGGAAAAGUGGCUGUGGAUAGACUGCC	0.05
GGCAGAGCUCAACCGAGCGUGGCAAAGUGGCUGUGGCUAGACUUCC	0.05
GGCAGAGCUCAACCCAGCGUGGCAAAGUGCCUGUUGCUCGACUGCC	0.15
GGCAGAGCUCAACCCAGCGUCGCAAAGUGGCUGUGGCUGGACUGCC	0
GGCAGAGCUCAACCCAGCGUGGACAAGUGGCUGUGGCUAGACUGCC	0.08
GGCAGAGCUCAACCCAGCGUGCCAAAGUGGCUGUGGCUAGACCGCC	0.05
GGCAGAGCUCAAUACAGCGUGACAAAGUGGGUGUGGCUAGACUGCC	0.34
GGCAGAGCUCAAUACAGCGGGGCAAGUUGGCUGUGGCUAGACUGCC	0.02
GGCAGAGCUCAAUACAGCGUGGCAAAGUAGCUGUGGCUAAUCUACC	0.13
GGCAGAGCUCAAUACAGCGUGUCAAACUGGUUGUGGCUAGACUGCC	0.03
GGCAGAGCUCAACCCAGCGUGGCAAAGUGGCUGUGGCUGGACCGCC	0.01
GGCAGAGCUCAACCCAGCAUGGCAAAGUCGCUGUGGCUAGACUGCC	0.38
GGCAGAGCUCAAUACAGCGUUGCAAAGUGGCUGUGGCUAGCCUGCC	0.06
GGCAGAGCUCAACCCUGCAUGCCAAAGUGGCUGUGGCUAGACUGCC	0.07
GGCAGAGCUCAACCCAGCCUGGCAAAGUGGCUGUGGCUAGACUUCC	0.03
GGCAGAGCUCAACCCAGCGUGGGAAAGUGGCUGUGGCUAGACUGCA	0.03
GGCAGAGCUCAACCCAACGUGGCAAACUGGCUGUGGCUAGAGUGCC	0.02
GGCAGAGCUCAACCCAGAGUGGCAAAGUGGCUGUGGCAAUACUGCC	0.09
GGCAGAGCUCAAUACAGCGGGGCAAAGUGGCUGUGGAAAGAGCGCC	0.01
GGCAGAGCUCAAUACAGCGUGACAAACUUGCUGUGGCUAGACUGCC	0.09
GGCAGAGCUCAACCCAGCGUGGCCAAGGGUCUGUGGCUAGACUACC	0.03

Variant	self-cleavage
GGCAGAGCUCAACCCAGCGUGCCAAAGUGGGUGUGGCUAGACAGCC	0.03
GGCAGAGCUCAAUACAGCGUGGCAAAGUCGCUGUGGCUCGACUGCA	0.02
GGCAGAGCUCAACCCAGCGUGUCAAAGUGGCUGUGGCUAAACUGCC	0.02
GGCAGAGCUCAAUACAGCGUAGCAAAGCGGAUGUGGCUAGACUGCC	0.07
GGCAGAGCUCAACCCAGCGUGGCAAAUUGGCUGUUGCUAGCCAGCC	0.03
GGCAGAGCUCAAUACAGCGAGGCAAAGUUGCUGUGGCUAGACAGCC	0.25
GGCAGAGCUCAACCCAGCGUGGCAAAGUGGCUGUGGCUAGGCGGCC	0.19
GGCAGAGCUCAAUACAGCGUUGCAAAGUGGCUGUGGCUAGACUUCC	0.55
GGCAGAGCUCAAUACAGCGUGGCAAAGUGUCGGUGGCUAGACUGCC	0.07
GGCAGAGCUCAACCCAGCGUGGCAAAGUUGCUGUGUCUAGACUGCC	0.05
GGCAGAGCUCAACCCAGCGUGGCAAAUUGGCUGUGGCUAGACUGAC	0.12
GGCAGAGCUCAAUACAGCGUGUCAAAGUUGCUGUGGCUCGACUGAC	0.06
GGCAGAGCUCAACCCAUCGGGGCAAAGUGGCUGUGGCCAGACUUCA	0
GGCAGAGCUCAAUACAGCGUAGCAAAGUUGCUGUGGCUAGACUGCC	0.18
GGCAGAGCUCAACCCAGCGUUGCAAAGUGGCUGUGGCUAGACUUCC	0.02
GGCAGAGCUCAACCCAGCGUGGCACAGUGUCUGUGGCUAGACUGCC	0.09
GGCAGAGCUCAAUACAGCGUGGCAAAGUUGCUGCGGCUAGACUGCC	0.08
GGCAGAGCUCAACCCAGCGUGGCAAAGUAGCUGUGGCUUGACUGCC	0.08
GGCAGAGCUCAACCCAGCGUUGUAAAGAGGCUGUGGCUAGACUGCC	0.05
GGCAGAGCUCAACCCAGAGUGGCAAAGUGCCUGUGGCUAGACUCGC	0.02
GGCAGAGCUCAACCCAGCGUGGCCAAGUGGCAGUGGCUAGACUGCC	0.02
GGCAGAGCUCAAUACAGCGUUGCAAAGUGGCUGUGCCUAGACUGCC	0.47
GGCAGAGCUCAACCCGGCGUGGCAAAGUUGCUAUGGCUAGAUUGCC	0.02

Variant	self-cleavage
GGCAGAGCUCAAUACAGCGUGGCAAAGUGGCCGUGGCUAGACUCCC	0.02
GGCAGAGCUCAACCGAGCGUGACAAAGUGGCUGUGGGUAGACUGCC	0.05
GGCAGAGCUCAACCCAGCGUGGCAAAUUGGCAGUGGCUCGACUGCC	0.02
GGCAGAGCUCAACCCAGCGUGACAAAGUGGCUGUGGCUAGACAGCC	0.04
GGCAGAGCUCAACCCAGCGUGGGACAGUGGCUGACGCUAGACUGCC	0.07
GGCAGAGCUCAAUACAGCGAGGCAAAGUGGCUGUGACUAGACUGCC	0.02
GGCAGAGCUCAACCCGGCGUGGCAAAGUGGCUGUGGCUAGACUGGC	0.03
GGCAGAGCUCAACCCAGCGUGGCAAAGUGGUUUUGGCUAGACUGCC	0.01
GGCAGAGCUCAAUACAGCGUGGCAAAAUGGCUGUGGCUAGAUUGGC	0.04
GGCAGAGCUCAAUACAGCGUGGCAAAGUGGCUGUCUCUAGACUGCC	0.06
GGCAGAGCUCAAUACAGCGUGGCAAAAUGGCUGUAGCUAGACUGCC	0.52
GGCAGAGCUCAACCCAGCGUGGCUAAGUGCCUGUGGCUAGAAUACC	0.1
GGCAGAGCUCAAUACAGCGUGGCAAAGUAGCUGUGGCUAGCCUGCC	0.04
GGCAGAGCUCAAUACAGCGUGGCAAAGUGGCUGCGGCUUGACUGCC	0.09
GGCAGAGCUCAAUACAGCGUGGCAAAGUGGCUCUGGCCAGAUUGCC	0.02
GGCAGAGCUCAACCUAGCGUGGAAAAGUGGCUGUGGCUCGACUGCG	0.02
GGCAGAGCUCAAUACAGCGUGGCAAAGUGCCUGUGGCUAGACUACC	0.04
GGCAGAGCUCAACCCAGCGUGGCAGAGUGGCUGUGGCUAGACUCCC	0.01
GGCAGAGCUCAACCCAUUGUGGCAAAGUGGCUGUGGCUAGACUGCC	0.08
GGCAGAGCUCAACCCCGCGUGGCAAAGUGGCAGUGGCUAUACUGCC	0.01
GGCAGAGCUCAACCCAGCGUGGCACAGUGGCUGUCGCUAGACUGCC	0.04
GGCAGAGCUCAACCCCGCGCGGCAAAGUGGCUGUGGCUAGACUGCC	0.07
GGCAGAGCUCAAUACAGCGUGGCAAAGUCGCUGUGGAUAGACUGCC	0.05

Variant	self-cleavage
GGCAGAGCUCAACCCAGCGUGGCAAAGUGGAUGUGUCUAGACUGCC	0.85
GGCAGAGCUCAACCCAGCGUGGAAAAGUAGCUGUGGCUAGACUGCC	0.19
GGCAGAGCUCAACCCAGCGUGGCAAAGUGGAUGUGGCUAGAUUGCC	0.1
GGCAGAGCUCAACCGAGCGUGGCAUAGUGGCUGUGGCUAGACUGCC	0.04
GGCAGAGCUCAACCCAGCGUUGCAAAGUGCCUGUGGCUACAGUGCC	0
GGCAGAGCUCAAUACAGCGCGGCAAAGUGGCUGUGGCAAGACUGCC	0.04
GGCAGAGCUCAAUACAGCGAGGCAAAGUGGCUGUGGCUAGACUUCC	0.04
GGCAGAGCUCAACCCGGCGUGGCUAAUUGGCUGUGGCUAGACUGCC	0.18
GGCAGAGCUCAACCAACCGUGGCAAAGUGGCUGUGGCUAGACUGCC	0.04
GGCAGAGCUCAACCCAGCGUGGCAAAGUGGUUGUGGCUAGACUGCU	0
GGCAGAGCUCAACCCAGCGUGGCAAGGUGGCUGUGGCUAGACCGCC	0.07
GGCAGAGCUCAAUACAGCGUGGCAAAGUUGAUGUGGCCAGACUGCC	0.03
GGCAGAGCUCAACCCAGUGUGGCAAAGUGGCUGUGGCUAGUCUGCC	0.11
GGCAGAGCUCAACCCAUCGUGGCAAAGUGGCUGUGGCAAGACUGCC	0.04
GGCAGAGCUCAAUACAGCGCGGCAAAGUGGCUGGGGCUAGACUGCC	0.02
GGCAGAGCUCAACCCAGCGUGGCAAAGUGGCUGUGGCUAGACUGAA	0.04
GGCAGAGCUCAACCCUGCGUCGCAAAGUGGCUUUGGCUAUACUGCC	0.02
GGCAGAGCUCAACCCAGCGUGGCAAAUUGGCUUUGGCUAGACUGCC	0.02
GGCAGAGCUCAACCCAGCCUGGCAAAGUGGCUGUGGCAAGACUGCC	0.01
GGCAGAGCUCAAUACAGCGUGGCAAAGAGGCUGUGGCUAAACUGCC	0.15
